From publication PMC4336329 (PLoS ONE, 2015)
Screen size: about 310,000 compounds; about 2,200 (0.71%) showed an effect of 50% or more. The effect is printed as a negative number. Some of the results follow.

The compounds below were run against human ether-à-go-go-related gene (hERG) potassium channel (human, UniProt Q12809) (assay: primary screen, population patch clamp on CHO cells stably expressing hERG).
Chain of human ether-à-go-go-related gene (hERG) potassium channel (Q12809 whole entry, looked up): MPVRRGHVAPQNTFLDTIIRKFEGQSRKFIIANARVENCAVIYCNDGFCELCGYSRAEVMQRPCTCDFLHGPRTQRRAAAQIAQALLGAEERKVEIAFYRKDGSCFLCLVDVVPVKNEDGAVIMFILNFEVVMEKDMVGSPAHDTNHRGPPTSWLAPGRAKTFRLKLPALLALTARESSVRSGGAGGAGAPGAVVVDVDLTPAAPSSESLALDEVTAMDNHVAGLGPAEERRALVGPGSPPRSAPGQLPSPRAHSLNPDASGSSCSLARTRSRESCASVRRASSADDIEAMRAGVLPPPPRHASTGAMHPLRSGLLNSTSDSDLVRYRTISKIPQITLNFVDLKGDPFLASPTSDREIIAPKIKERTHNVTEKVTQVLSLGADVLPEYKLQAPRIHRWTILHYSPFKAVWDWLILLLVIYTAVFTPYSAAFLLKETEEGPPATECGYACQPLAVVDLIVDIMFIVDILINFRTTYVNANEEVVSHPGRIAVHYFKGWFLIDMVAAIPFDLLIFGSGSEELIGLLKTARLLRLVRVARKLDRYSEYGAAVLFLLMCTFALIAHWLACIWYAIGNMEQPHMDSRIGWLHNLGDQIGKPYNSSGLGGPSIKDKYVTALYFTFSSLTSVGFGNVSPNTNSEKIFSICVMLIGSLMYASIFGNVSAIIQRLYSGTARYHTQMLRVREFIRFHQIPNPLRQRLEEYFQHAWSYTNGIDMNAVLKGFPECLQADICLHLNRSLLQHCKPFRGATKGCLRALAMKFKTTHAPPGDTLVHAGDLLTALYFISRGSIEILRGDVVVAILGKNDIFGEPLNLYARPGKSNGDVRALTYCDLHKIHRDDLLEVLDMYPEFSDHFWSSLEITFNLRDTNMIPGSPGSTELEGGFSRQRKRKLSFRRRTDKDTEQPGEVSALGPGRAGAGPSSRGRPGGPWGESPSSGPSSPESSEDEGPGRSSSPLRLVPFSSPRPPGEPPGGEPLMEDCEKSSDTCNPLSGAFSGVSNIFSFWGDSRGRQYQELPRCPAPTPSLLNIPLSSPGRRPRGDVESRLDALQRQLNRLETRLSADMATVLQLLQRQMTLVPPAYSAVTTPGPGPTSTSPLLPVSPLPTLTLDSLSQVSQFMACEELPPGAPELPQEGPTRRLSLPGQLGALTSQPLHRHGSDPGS

Compound	hERG current change (%, negative = inhibition) at 1uM [%]
O=C(O)Cc1coc2ccc3ccccc3c12	15
CCOCCCNC(=O)c1ccc2c(=O)n(CCCOCC)c(=S)[nH]c2c1	4.04
COc1ccc2cc1Oc1ccc(cc1)C[C@H]1c3cc(c(OC)cc3CCN1C)Oc1c(OC)c(OC)cc3c1[C@H](C2)N(C)CC3	9.67
CS(=O)(=O)N1CCc2ccccc2C1	3.71
CCN(CC(=O)NCc1cccs1)C(=O)c1ccc(S(=O)(=O)N(CC)c2ccccc2)cc1	-12.1
CCCc1c(C)[nH]c2nc3ccccc3n2c1=O	11.4
COc1ccc(N(CC(=O)NCCc2ccc(S(N)(=O)=O)cc2)S(=O)(=O)c2c(C)noc2C)cc1	17.4
COc1cc(/C=C/C(=O)O)cc(S(=O)(=O)N2CCCc3ccccc32)c1OC	15
Cc1ccccc1NC(=O)C1CCN(C(=O)N2CCOc3ccccc32)CC1	11.9
COc1ccc(Oc2nnnn2-c2ccccc2)cc1	0.277
Cc1ccc(NC(=O)c2cc3c(s2)CCC3)cc1S(=O)(=O)N1CCOCC1	5.84
Cc1ccc(-c2c(C(=O)N(C)Cc3ccccc3)oc(=O)c3ccccc23)cc1	12.2
C=CCSC1=N/C(=C\c2sccc2C)C(=O)S1	-3.89
CCCCCCCCCc1nc2sc3c(c2c(=O)n1NC(=O)c1ccc([N+](=O)[O-])cc1)CC(C)(C)OC3	-0.493
Cc1ccc(C(C)C)cc1S(=O)(=O)NCc1ccccn1	7.26
Cn1cnnc1SCC(=O)N1N=C2/C(=C/c3ccco3)CCCC2C1c1ccco1 (stereo not drawn)	-6.2
Cc1nc2nc[nH]n2c(=O)c1NS(C)(=O)=O	8.52
O=C(Cc1ccccc1)N1CCN(c2ncccn2)CC1	8.69
CCCCN(C(=O)C1=COCCO1)c1c(N)n(Cc2ccccc2)c(=O)[nH]c1=O	10.9
CCCCN(CC)CCCNC(=O)c1cn(CC(C)C)c(=O)c2c1c1ccccc1n2C	9.29
Cc1nnc(SCC(=O)c2ccc(Cl)cc2)n(N)c1=O	10.7
CCOc1cc2c(cc1OCC)-n1cccc1C(c1cc(OC)ccc1F)NC2.Cl (stereo not drawn)	12
Cc1cccc(CC2CC(=O)N(CCc3ccc4c(c3)OCO4)C2=O)c1 (stereo not drawn)	21.6
COC(=O)C(C(=O)OC)c1ccccc1[N+](=O)[O-]	15
O=C(CSc1nnc(CNC(=O)c2cccs2)o1)Nc1ccccc1	3.29
CCN(CC)c1ccc(C(=S)NCc2ccccc2)cc1	0.779
O=C(/C=C/c1cn(CC(O)CN2CCOCC2)c2ccccc12)c1cccs1 (stereo not drawn)	8.14

Compound	hERG current change (%, negative = inhibition) at 1uM [%]
Cc1ccc(S(=O)(=O)NC(=S)c2ccccc2)cc1	14.6
C[C@@H]1C[C@H](Nc2ccccc2)c2ccccc2N1C(=O)c1cccnc1	7.72
COc1ccc(OCc2cc(C(=O)N(C)C3CCOCC3)no2)c2ccccc12	10.4
Cc1ccc(C)c(N(C(=O)c2snc(C(N)=O)c2N)C(C(=O)NCC2CCCO2)c2ccc(C)o2)c1 (stereo not drawn)	15
CCCCC(=O)NC1(C(F)(F)F)NC(=O)N(C)C1=O (stereo not drawn)	18.7
CCN(c1ccc(OC)cc1)S(=O)(=O)c1ccc2c(c1)CC(C)N2C(=O)C1CC1 (stereo not drawn)	14.6
COc1ccc(OC)c2sc(N(CCCN(C)C)C(=O)c3ccc(S(=O)(=O)N4CCc5ccccc5C4)cc3)nc12.Cl	4.33
COc1ccc(/C=N/NC(=O)c2ccccc2O)cc1CSc1ccccn1	5.27
Cc1ccc(C(=O)NNC(=O)COC(=O)COc2ccccc2C#N)cc1	12.7
O=C(COC(=O)c1ccc[nH]c1=O)NC1CCCC1	11.8
COCCCn1c(=NC(=O)c2ccncc2)c(C#N)cc2c(=O)n3cccc(C)c3nc21	-53.3
COc1ccccc1NC(=O)c1ccc(NC(=O)COC(=O)CCC2CCCC2)cc1	18.1
Cc1ccccc1NC(=O)NNC(=O)CCc1ccccc1	13.7
CCc1ccc(OCC(=O)c2c(O)c3ccccc3oc2=O)cc1	5.7
COc1ccc(CCN(CC(=O)NC2CCCC2)C(=O)Cn2nnc(-c3ccc(C)o3)n2)cc1OC	14.4
COc1ccc(/C=N/NC(=S)Nc2cc(C(F)(F)F)ccc2Cl)cc1	7.19
COc1cc2c(cc1OC)-c1c(OC)c(OC)cc3c1[C@H](C2)[N+](C)(C)CC3.[I-]	-1.77
CCn1c(C)cc(C(=O)CN2C(=O)c3ccccc3S2(=O)=O)c1C	7.92
CSCCC(NS(=O)(=O)c1cc(C(=O)O)ccc1Cl)C(=O)O (stereo not drawn)	20.4
CCOC(=O)c1ccc(NC(=O)CN(c2ccc(C)cc2)S(=O)(=O)c2c(C)nn(C)c2C)cc1	9.61
O=C(NCc1ccc2c(c1)OCO2)C1CCC(CNS(=O)(=O)c2ccc(Cl)cc2)CC1 (stereo not drawn)	-1.07
CCC1COCCS(=O)(=O)N1Cc1ccc(Cl)cc1 (stereo not drawn)	2.79
COc1cccc(C(=O)CSc2nnc(-c3cc(OC)cc(OC)c3)o2)c1	-0.473
N#Cc1c(Oc2ccc3ccccc3c2)sc(C(=O)c2ccccc2)c1N	8.36
COc1ccccc1OCC(=O)Nc1nc(-c2ccc(S(=O)(=O)N3CCOCC3)cc2)cs1	10.2
COc1ccc(/C=N/NC(=O)c2cc(C34CC5CC(CC(C5)C3)C4)[nH]n2)cc1OC	3.03
CCc1ccc(CNCCc2ccc(F)cc2)cc1	-18.2
